Data from paper PMC12136788.
The other results are listed elsewhere or left out.

T1: UNK ZnF1-3 (human, UniProt Q9C0B0 31-174)
T1 sequence: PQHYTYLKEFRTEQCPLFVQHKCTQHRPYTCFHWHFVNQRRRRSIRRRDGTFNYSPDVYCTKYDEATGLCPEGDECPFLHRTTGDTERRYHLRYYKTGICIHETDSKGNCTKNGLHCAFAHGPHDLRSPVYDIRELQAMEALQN

B1: chr4:76721835:76721836:+_ENSG00000138768_ENST00000264904|hu_mus|hu_hu_hu_mus_True|78_78 (ssRNA)
RNA: GGGAGUUCUACAGUCCGACGAUCGUUUGGCUGGGGUUUCUGAGACGCUCUGGAAUAAACUCAUGUUUUGCUAAUAAAUCCUAGUUUCUCUAUGAAAUUCUCUUUGCCAAUCCUCUUCUCUAUUAGUUGCUUUAGUUUCUCUUUCAACAGAGGAUUGAGCAUCA
B2: chr9:53430067:53430068:-_ENSMUSG00000032030_ENSMUST00000166367|mus_hu|motif|central (ssRNA)
RNA: GGGAGUUCUACAGUCCGACGAUCGGGUGAGUUGACUUGAGGUUCAUACAACAAAACUUGCCGUUUGAGUUUUGGGAAAGCGGCGGAAGACCAUAAAGUCCUCCUAAGUUCAGCAUCAGGGAGUUCAGUUGCAAGCUUAAGAUUCAACAGAGGAUUGAGCAUCA
B3: 38023238_38029427_504_3pUTR_ENSG00000065882_ENST00000510573|human|control|control (ssRNA)
RNA: GGGAGUUCUACAGUCCGACGAUCGUUUUGGAAGAAUUCAUUCCCUCUAUCCUCUCACAGAGCUUGUGCAGGCUUUGCAGGGGGCAGCCCUCACACAGCUGGGCUGGCGCCUUAGCUGUCUGCUGCACUGCGGCCACCGUGAAGCAACAGAGGAUUGAGCAUCA
B4: chr17:37075478:37075479:+_ENSG00000002834_ENST00000318008|hu_hu|FALSE|FALSE (ssRNA)
RNA: GGGAGUUCUACAGUCCGACGAUCAAAGAGAGGUAGAGCCCAUCCCACUGGUCCCUACACAGCGGCAGAGUCCCCAUCGCCAUCCCAGGAACCAAGAAGUGGAUCCCACUCUGGGGAAUGUAGGGAGCCCCUGACCUGGGGUCCCAACAGAGGAUUGAGCAUCA
B5: chr14:62207507:62207508:+_ENSG00000100644_ENST00000337138|hu_hu|motif|central (ssRNA)
RNA: GGGAGUUCUACAGUCCGACGAUCUGACAACUGAUCGAAGGAACGUAACUGGAAGUCAUCAUCCAUUGGGAUAUAGGGAGCGGACAUCUCCAAGUCUAAAUCUGUGUCCUGAGUAGAAAAUGGGUUCUUUGCUUCUGUGUCUUCCAACAGAGGAUUGAGCAUCA
B6: chr1:94943820:94943821:+_ENSG00000117528_ENST00000370214|hu_hu|FALSE|FALSE (ssRNA)
RNA: GGGAGUUCUACAGUCCGACGAUCCGCUGGGCCCUGAGCUCCAAUUGCACUCGUUAACUUAAAGAUAUACAAAACUAUGUCUAAAAAUGGCUUACUAAGAUUUGAAUACAGAUCGACUACACUGUUACAAAAUUUUUCUACAUCCAACAGAGGAUUGAGCAUCA
B7: chr16:92112057:92112058:+_ENSMUSG00000039680_ENSMUST00000047429|mus_hu|motif|central (ssRNA)
RNA: GGGAGUUCUACAGUCCGACGAUCCCCUUCACAUUCUUUUAGUUCCUGGGUCAGAGGGUGUUUGACAAUAUUCCCUCGGAUCACAUCGGUAUCUCGAGACAAGUGCUCCACCAUGCUUUCAACAGCUGCGGUGGGUGCAUAAAACAACAGAGGAUUGAGCAUCA
B8: chr1:23374948:23374949:-_ENSMUSG00000026158_ENSMUST00000027343|mus_mus|FALSE|FALSE (ssRNA)
RNA: GGGAGUUCUACAGUCCGACGAUCCCUCAAAAUCUUAACACCUCACAAAUCGGUACAAGCUAAAGCUGGUGUAUUAUGUACCUAGAAUGAGGAAGUGUUUCUUGUCUUACUUACAGGGAUAUGAUUCACAAAUAAGUAUGUAUCCAACAGAGGAUUGAGCAUCA
B9: chr4:57314706:57314707:+_ENSG00000128050_ENST00000264221|hu_mus|hu_hu_hu_mus_True|1_98 (ssRNA)
RNA: GGGAGUUCUACAGUCCGACGAUCCAGAAUUUCAAAAAUAGCCUGUGUGGCAUGACUCAUGAUGUCCACUUCAGUCUGCCCUAUAACAAGGCCAGCAAAACAGAAUUUUGCAGCAAUGAGUUGCUCCUCAGACCACUGUGGGUCCAACAGAGGAUUGAGCAUCA
B10: chr2:202488911:202488912:-_ENSG00000155755_ENST00000286196|hu_mus|hu_hu_hu_mus_False|28_58 (ssRNA)
RNA: GGGAGUUCUACAGUCCGACGAUCAUUGAAACAUUUUUCAUAAUCUCCAGUAGCAUUUCAGCAUUAUGUAACAAAAGAUCUAUUACAAAUACAUGUAUCUUAUAAAAAUAAAAAUACAAACACGAGUGGGGAGCGCAGGCGCCACAACAGAGGAUUGAGCAUCA
B11: chrX:161375010:161375011:-_ENSMUSG00000061778_ENSMUST00000112247|mus_mus|motif|central (ssRNA)
RNA: GGGAGUUCUACAGUCCGACGAUCCAUCUGGAGGUGGCAAACUGAAACAGAAAAACCCACAUUAAGACAAAGCAUCACACGGGUGUCCCUUUAAGGUUUUCUUUCCUCGGCCGACUUCUUAAGGAGCUCCAUUACAUCACUCCUCAACAGAGGAUUGAGCAUCA
B12: chr13:115030651:115030652:+_ENSG00000130177_ENST00000356221|hu_hu|motif|central (ssRNA)
RNA: GGGAGUUCUACAGUCCGACGAUCAAUGUACAUUUCGAUGCAAUGACCAAGCAUUGUAACAGAAAAUGUAUCAUCUCGCCGGAGACCAAGGGCUGUGUGGAAGUAGUCCACAGCAUUUUCAAAGUUGCCCAUCAGACUGUGGAUCAACAGAGGAUUGAGCAUCA
B13: chr7:65705844:65705845:+_ENSG00000169902_ENST00000304842|hu_hu|motif|central (ssRNA)
RNA: GGGAGUUCUACAGUCCGACGAUCAAAAGGAUCUUUAUUACAUAAAUAAGGGGCUGGCUCCCCAUGCUUAACGAUAAUUUCGGGUAAGAAGGCUUGCAUGGCAGAAUCCAGCACUUCAUCAGUAACACCAGCCUCAUCCAGGCGCAACAGAGGAUUGAGCAUCA
B14: 55990807_55990927_1532_3pUTR_ENSMUSG00000022601_ENSMUST00000050248|mouse|control|control (ssRNA)
RNA: GGGAGUUCUACAGUCCGACGAUCUUGGUAACAUUCUCUUUUGAGAUUUUAGGAUGAACACUAGCAACUAUGCCAUCUUCUCUGGUGACUGCGGACUCUGGUUGGUUGCUUUCUUUUGCUAAGCUUGCAGUUCCCAUUUCAGGGCAACAGAGGAUUGAGCAUCA

Biological target: T1, UNK ZnF1-3
Assay: nsRBNS (natural sequence RNA bind-n-seq); RBNS binding buffer (assumed for nsRBNS): 25 mM Tris pH 7.5, 150 mM KCl, 3 mM MgCl2, 0.01% Triton X-100, 500 ug/ml BSA, 20 U/ml SUPERase-In, 4 C; UNK is unkempt and MSI1 is Musashi-1; names of the RNAs are library labels; protein concentration not given here; high values mean tight binding

Row | Binder | binding signal [enrichment R]
1 | B1 | 0.509
2 | B2 | 1.47
3 | B3 | 0.266
4 | B4 | 1.1
5 | B5 | 1.09
6 | B6 | 1.14
7 | B7 | 0.461
8 | B8 | 1.31
9 | B9 | 0.847
10 | B10 | 1.02
11 | B11 | 1.45
12 | B12 | 0.726
13 | B13 | 1.04
14 | B14 | 0.37
